PubChem BioAssay AID504332 (National Center for Advancing Translational Sciences (NCATS), 2011)
Where “and” joins values, the source holds several entries; their conditions need not be identical. Identical values can stand only once. Out of some 350,000 compounds screened, about 31,000 (8.9%) were called active. This list was built around the results that the source calls inconclusive (neither active nor inactive); the mix of calls is not that of the screen. Calls come from the whole dose curve; as a rule, active = well fitted inhibition curve with a large enough effect; inconclusive = small, poorly fitted or top-dose-only effect; inactive = no such curve, though single readings can be large or run the other way. A potency beside an inconclusive call is a rough fit, not a confirmed value.

Molecular target: Histone-lysine N-methyltransferase EHMT2 (Homo sapiens) (UniProt Q96KQ7)
Sequence of UniProt Q96KQ7 (Q96KQ7 whole entry, looked up): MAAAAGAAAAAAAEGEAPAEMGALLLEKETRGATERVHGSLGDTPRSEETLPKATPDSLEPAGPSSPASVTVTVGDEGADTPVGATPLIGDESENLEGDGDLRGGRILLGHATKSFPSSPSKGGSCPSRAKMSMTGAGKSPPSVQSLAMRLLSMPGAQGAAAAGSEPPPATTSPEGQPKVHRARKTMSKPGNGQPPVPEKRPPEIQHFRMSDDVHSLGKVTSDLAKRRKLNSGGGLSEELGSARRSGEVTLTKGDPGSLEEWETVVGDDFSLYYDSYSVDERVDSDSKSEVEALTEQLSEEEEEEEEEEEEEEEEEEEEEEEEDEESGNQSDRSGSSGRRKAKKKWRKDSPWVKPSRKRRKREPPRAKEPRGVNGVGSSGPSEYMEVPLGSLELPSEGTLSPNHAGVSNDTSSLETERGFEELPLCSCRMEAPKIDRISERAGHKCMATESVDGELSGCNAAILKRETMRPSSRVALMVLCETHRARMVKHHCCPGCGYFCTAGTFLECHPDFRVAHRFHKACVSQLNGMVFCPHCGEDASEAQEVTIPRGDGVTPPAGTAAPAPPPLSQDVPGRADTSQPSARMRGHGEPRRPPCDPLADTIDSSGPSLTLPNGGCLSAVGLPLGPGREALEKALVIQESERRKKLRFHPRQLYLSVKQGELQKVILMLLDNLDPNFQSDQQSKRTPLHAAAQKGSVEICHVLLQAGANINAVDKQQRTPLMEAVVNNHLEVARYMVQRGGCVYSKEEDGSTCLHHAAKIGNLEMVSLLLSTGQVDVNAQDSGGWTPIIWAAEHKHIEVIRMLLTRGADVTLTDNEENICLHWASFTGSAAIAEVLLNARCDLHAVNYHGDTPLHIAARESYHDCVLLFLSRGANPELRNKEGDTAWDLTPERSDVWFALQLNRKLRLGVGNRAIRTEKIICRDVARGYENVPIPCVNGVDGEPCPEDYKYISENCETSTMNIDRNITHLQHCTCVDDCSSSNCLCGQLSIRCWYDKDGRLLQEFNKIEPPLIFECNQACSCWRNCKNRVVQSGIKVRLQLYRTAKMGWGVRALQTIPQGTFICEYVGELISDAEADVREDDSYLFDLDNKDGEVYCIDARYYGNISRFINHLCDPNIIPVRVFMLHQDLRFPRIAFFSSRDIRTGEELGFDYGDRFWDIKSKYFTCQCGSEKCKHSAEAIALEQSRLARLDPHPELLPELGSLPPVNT
Assay: qHTS Assay for Inhibitors of Histone Lysine Methyltransferase G9a; note: nearly all actives have a fitted effect of over 75% in size
Conditions: G9a H3K9 monomethylation, AlphaScreen, 2 h; activity, negative = inhibition: at 59 µM (top of the series) unless noted
Outline: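 Signal arises when biotinylated H3K9 peptide, once monomethylated, bridges streptavidin donor and antibody-captured acceptor beads. Enzyme at 20 nM was preincubated 15 min with test compounds; peptide 500 nM and SAM 20 uM then reacted for 2 h.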
% is set by controls: 0 for no effect and ±100 for the full control effect; potency is the fitted concentration of half-maximal effect; tags give direction and shape of the fitted curve.

SMILES	Potency	activity, negative = inhibition
Cn1c(=O)c2c(nc(NC(Cc3ccccc3)C(=O)O)n2Cc2ccccc2)n(C)c1=O (configuration not stated)	active: 56.2 µM	–
O=C(NCc1ccccc1F)c1cccc(NC(=O)N2CCSc3ncccc32)c1	inactive	–
Cc1cc(C)nc(-n2cc(C(=O)c3cc(F)ccc3O)cn2)n1	inconclusive: 4.47 µM [inhibitor, single point]	–
CCN(CC)S(=O)(=O)c1cccc(C(=O)Nc2ccccc2C(=O)N2CCOCC2)c1	inconclusive: 1.41 µM [inhibitor, partial curve, poor fit]	–
Cc1ccc(-c2cc(NC(=O)COc3c(C)cc(C)cc3C)on2)cc1	inactive	–
COc1ccc(C2CC(=O)c3cc(-c4nc(-c5cccc([N+](=O)[O-])c5)cs4)c(=O)n(-c4ccccc4C)c3C2)cc1 (configuration not stated)	active: 3.55 µM	–
CS(=O)(=O)N(Cc1cccc(CN(C(C(=O)O)c2ccccc2)S(C)(=O)=O)c1)C(C(=O)O)c1ccccc1 (configuration not stated)	active: 31.6 µM	–
O=C(NCCc1c[nH]c2ccccc12)c1ccco1	inconclusive: 89.1 µM [inhibitor, single point]	–
CC(NS(=O)(=O)c1ccc(Br)cc1)c1ccccc1 (configuration not stated)	inconclusive: 70.8 µM [inhibitor, partial curve]	–
Cc1ccc(Cn2c(CN(C)Cc3ccccc3)nc3c2c(=O)n(C)c(=O)n3C)cc1	–	inactive: 9.47% [at 2.33 µM]
O=C(NCc1ccc2c(c1)OCO2)c1cccnc1	inconclusive: 50.1 µM [inhibitor, partial curve]	–
CCc1nnc(NC(=O)c2ccc(Cl)nc2)s1	inconclusive: 50.1 µM [inhibitor, partial curve]	–
C=CC[n+]1c(-c2ccc(OC)cc2)csc1NNC(=O)Nc1ccccc1	active: 14.1 µM	–
CCn1c(=N)n(CC(O)c2ccco2)c2ccccc21 (configuration not stated)	inconclusive: 1.58 µM [inhibitor, full curve, poor fit]	–
Cc1cc(NS(=O)(=O)c2ccc(NC(=O)/C=C/c3c(F)cccc3Cl)cc2)no1	inconclusive: 89.1 µM [inhibitor, single point]	–
CCC1SC(C)C/C(=N/NC(N)=O)C1C (configuration not stated)	inconclusive: 79.4 µM [inhibitor, partial curve, poor fit]	–
CC(=O)NC(Nc1nc2c(s1)CCCC2)(C(F)(F)F)C(F)(F)F	active: 50.1 µM	–
COc1ccc2c(CNC3CCC(C)CC3)c(C(=O)O)n(Cc3ccccc3)c2c1 (configuration not stated)	inactive	–
CC(C)C(=O)NC(=S)N1CCc2ccccc21	inconclusive: 89.1 µM [inhibitor, single point]	–
COC(=O)c1nc(N)sc1-c1ccc(OC)cc1	inactive	–
Cc1cccc(Cn2nnc3c2C(=O)c2ccccc2C3=O)c1	inconclusive: 31.6 µM [inhibitor, single point]	–
N#Cc1c(NC(=O)c2ccccc2)sc2c1CCC2	inconclusive: 89.1 µM [inhibitor, partial curve, poor fit]	–
CC(=O)Nc1ccc(NC2CCCCC2NS(=O)(=O)c2ccccc2)cc1 (configuration not stated)	inconclusive: 79.4 µM [inhibitor, single point]	–

SMILES	Potency	activity, negative = inhibition
CCCN1CCCc2cc(CN(CCCN3CCOCC3)C(=O)Nc3ccc(OCC)cc3)ccc21	active: 17.8 µM and active: 12.6 µM	–
CSc1ccccc1N=CC1=C(O)CC(C)(C)CC1=O	inconclusive: 28.2 µM [inhibitor, single point]	–
COc1ccccc1C(=O)NCC(=O)OCC(=O)Nc1nnc(-c2ccccc2)o1	–	inactive: 17.3% [at 12.7 µM]
CCN(Cc1nc2ccccc2c(=O)[nH]1)Cc1nc2cc(OC)c(OC)cc2c(=O)[nH]1	–	inactive: 20.2% [at 12.7 µM]
CC(=O)N1CCc2cc(CNC(=O)Nc3ccccc3C(F)(F)F)ccc21	inactive	–
O=C(CC1(O)C(=O)N(CCc2ccccc2)c2ccccc21)c1ccccn1 (configuration not stated)	inconclusive: 79.4 µM [inhibitor, partial curve, poor fit]	–
COc1ccc(-c2cn[nH]c2-c2ccc(OCc3ccccc3F)cc2O)cc1OC	inconclusive: 31.6 µM [inhibitor, full curve]	–
CC(C)N1CCC(N2CCN(Cc3ccc(Oc4ncccn4)cc3)CC2CCO)CC1 (configuration not stated)	inactive	–
c1ccc2c(c1)nc1n2CCN1CCNC1CCCCC1	inconclusive: 89.1 µM [inhibitor, partial curve, poor fit]	–
C=CCn1c(C(CCC(C)C)CC(C)(C)O)n[nH]c1=S (configuration not stated)	inconclusive: 15.8 µM [inhibitor, partial curve, poor fit]	–
COc1ccccc1Cc1nnc(NC(=O)C2CCN(C(=O)c3ccco3)CC2)s1	active: 10 µM	–
CCC(C(=O)Nc1cc(OC)ccc1OC)n1nc(-c2ccccc2)c2c(c1=O)CCCC2 (configuration not stated)	inconclusive: 4.47 µM [inhibitor, partial curve, poor fit]	–
CN(C)S(=O)(=O)N(CC(=O)NCCSc1ccc(Cl)cc1)c1ccccc1	inactive	–
NCC(O)CN1CCN(Cc2ccccc2)CC1 (configuration not stated)	inconclusive: 100 µM [inhibitor, single point]	–
C[C@@H](C(=O)NCc1ccco1)N1C(=O)N2CCc3c([nH]c4ccccc34)[C@@]2(C)C1=O	inconclusive: 12.6 µM [inhibitor, single point]	–
Cc1cc(N2CCN(c3ncccn3)CC2)nc2c(C)cccc12	inactive	–
Cc1nn(Cc2cccc(C(=O)NC(C)c3ccc(C(C)(C)C)cc3)c2)c(C)c1[N+](=O)[O-] (configuration not stated)	inconclusive: 79.4 µM [inhibitor, partial curve, poor fit]	–
Cc1cc(S(=O)(=O)Nc2ccc(C(=O)NCC(c3ccco3)N3CCCCC3)cc2)ccc1F (configuration not stated)	inconclusive: 70.8 µM [inhibitor, single point]	–
CCOC(=O)c1nc(C)nc(Sc2n[nH]c(-c3cc(C(F)(F)F)cc(C(F)(F)F)c3)n2)c1C	inconclusive: 39.8 µM [inhibitor, single point]	–
CN1C(C(=O)NC(C)(C)C)=CC(c2ccc3c(c2)OCO3)=NS1(=O)=O	inconclusive: 39.8 µM [inhibitor, partial curve, poor fit]	–
O=C(COC(=O)/C=C/c1c(F)cccc1Cl)NCC1CCCO1 (configuration not stated)	inconclusive: 89.1 µM [inhibitor, single point]	–
COc1ccccc1NC(=O)C1(C)Cc2ccccc2C(=O)O1 (configuration not stated)	active: 50.1 µM	–
CC(=O)N1c2ccc(S(=O)(=O)N3CCCCC3)cc2CC1C(=O)NCc1ccc(N(C)C)cc1 (configuration not stated)	active: 39.8 µM	–

SMILES	Potency	activity, negative = inhibition
Cc1ccc(-n2ccnc(NCc3cccs3)c2=O)cc1C	inconclusive: 22.4 µM [inhibitor, single point]	–
CCn1cc(C(=O)NCc2ccco2)c2cc(OC)c(OC)cc2c1=O	inconclusive: 28.2 µM [inhibitor, single point]	–
Nc1nc(SCC(=O)Nc2ccc(Cl)cc2C(F)(F)F)n[nH]1	inactive	–
CC(OC(=O)c1cccc(-n2cnnn2)c1)C(=O)c1ccccc1 (configuration not stated)	inconclusive: 89.1 µM [inhibitor, partial curve, poor fit]	–
O=C(NCCN1CCCC1)c1ccc(Cl)cc1Cl	inactive	–
CC1(C)Cc2cccc(OCC(O)CNCc3ccccn3)c2O1 (configuration not stated)	inconclusive: 2.82 µM [inhibitor, partial curve, poor fit]	–
Cn1c(SCc2n[nH]c(=S)o2)nnc1-c1ccccc1	inconclusive: 31.6 µM [inhibitor, single point]	–
CCC1CCc2sc(C(=O)NCC(c3ccccc3OC)N3CCCC3)cc2C1 (configuration not stated)	inconclusive: 39.8 µM [inhibitor, single point]	–
C[c-]1[c-](C)[c-](C)[c-](C)[c-]1C.[Fe].c1cc2nccc(N3CCCC3)[c-]2c1 (configuration not stated)	inconclusive: 8.91 µM [inhibitor, single point] and inconclusive: 1.58 µM [inhibitor, partial curve, poor fit]	–
O=C(CSc1ccc2nnc(-c3ccncc3)n2n1)Nc1ccc2c(c1)OCO2	active: 31.6 µM	–
O=C(NCCN1CCOCC1)c1ccc(Cl)c(S(=O)(=O)N2CCOCC2)c1	inconclusive: 35.5 µM [inhibitor, partial curve, poor fit]	–
O=C(NCc1nnc(SCC(=O)N2CCCc3ccccc32)n1-c1ccccc1)c1cccc2ccccc12	inconclusive: 28.2 µM [inhibitor, partial curve, poor fit]	–
O=C(CCCCl)NC1=NN(c2ccccc2)C(=O)C1	inactive	–
Cc1sc2nc(CSc3nc4ccccc4s3)[nH]c(=O)c2c1C	active: 8.91 µM	–
CN(C)CCCN(C(=O)c1ccc(S(=O)(=O)N2CCc3ccccc32)cc1)c1nc2c(Cl)cccc2s1	active: 39.8 µM	–
O=C1c2ccccc2C(=O)N1CCc1c[nH]c2ccc(O)cc12	inconclusive: 39.8 µM [inhibitor, partial curve, poor fit]	–
CN1CCN(S(=O)(=O)c2ccc(Nc3ccc(F)cc3)c([N+](=O)[O-])c2)CC1	active: 56.2 µM	–
COc1ccc(C(=O)C(CCCCC(CN(C)C)C(=O)c2ccc(OC)cc2)CN(C)C)cc1 (configuration not stated)	inconclusive: 35.5 µM [inhibitor, single point]	–
CN(C)S(=O)(=O)c1ccc(NC(=O)c2ccccn2)cc1	–	inconclusive: -126% [inhibitor]
CCN(CC)c1ccc(NC(=O)CN2CCN(c3nc(C)cc(C)n3)CC2)cc1	–	inconclusive: -126% [inhibitor]
CC1CC1C(=O)Nc1nc(-c2cccs2)c(-c2cccs2)s1 (configuration not stated)	inconclusive: 22.4 µM [inhibitor, single point]	–
